# Data published in the supplement of paper PMC11383711.
# This is one part of the list. Binding of human antibodies (heavy:light variable regions, tested as scFv in one mRNA-display pool) to influenza hemagglutinin, with or without the stem antibody CR9114 bound first. Score = (mean enrichment − median) / interquartile range of that screen; higher = more enriched, 0 = typical non-binder. Active = above the paper's cut-off per screen: stems 28; unblocked H1 Solomon Islands 5, H1 Michigan 3, H3 5, H5 19, H7 2.85, both B 5; blocked 9, 7, H5 10, H7 10, B Phuket 10, B Lee 11.5. Scores are scaled within each screen and are no affinities; replicates correlate at about 0.6 to 0.9, and antibodies rare in the pool are noisier.
# B1: antibody 3G04 (protein)
# chain 1: VQLVESGGAVVQPGRSLRVSCAASGFNFRTYGMYWVRQAPGKGLEWVALISYDGDKKFYADFAKGRFTISRDNSKNRFYLQMNSLQSDDTAMYYCAKDGPRGGGSGSLAHWGQGTLVTVSS
# chain 2: VSASPGHKITISCSGSGPNIGTNRVSWYQQFPGTVPRPLIYDDYLRPSGIPERFSGSKSGTSATLDITELQTGDEADYYCGTWDSSLSVWVFGGGTKLTVL
# B2: K77-1F11 (protein)
# chain 1: QVQLVQSAAEVKKPGASVKVSCKASGYSFTSYQVHWVRQAPGQGLEWMGMIIPTPGSINYAQKFQGRVTMTRDTSTNTVYMEVSGLRSDDTAVYYCARRGSYISGHYTYYGMDVWGQGTTVTVSS
# chain 2: EIVLTQSPGTLSLSPGERATLSCRASQSVSNSYLAWYQQRPGQAPRLLFYGASSRATGIPDRFSGYGSGTDFTLTISRLEPEDFAVYYCHHYGGSAGTFGQGTKVEIK
# B3: 039-10-4D04 (protein)
# chain 1: QVQLVESGGGVVQPGTSLRLSCVVSGFPFRSYSIHWVRQAPGKGLEWVAVISYDGDNKYYADSVKGRFTISRDNSKKTAYLQMNSLRVDDTAIYFCARDPVEYSSVSYYFLYGMDVWGQGTTVTVSS
# chain 2: QSVLTQPPSVSGAPGQRVTISCTGSSSNIGAGYDVHWYQQLPGTAPKLLIYGNINRPSGVPDRFSGSKSGTSASLAISGLQAEDEGDYYCQSYDNSLLLSVVFGSGTRLTVL
# B4: W85-1C02 (protein)
# chain 1: EVQVVESGGGLVQPGGSLRLSCAASGFTVSGNYMHWVRQAPGKGLEWVSVLYAGGRTYYADSVKGRFTISRDNSKNMLYLQMNSLSVEDTAVYYCAGLSLEWLDVWGQGTTVAVSS
# chain 2: DIQMTQSPSSLSASVGDRVTITCRAGQNIASYLNWYQHRPGKAPRLLIFAASSLQTGVPSRFSGSGSGSDFTLTISSLQPEDFATYYCQQTYSFFLTFGGGTKVEVK
# B5: 01.m.01 (protein)
# chain 1: EVQLVESGGGLVQPGWSLRLSCAASGFTFDSHAMHWVRQTPGKGLEWVSGITWSSNEVGYADSVKGRFTTSRDNAKNSLYLQMNSLRLEDTALYYCTTAGGKGNWGRDDYWGQGTLVTVSS
# chain 2: DIHMTQSPSSLSASVGDRVTITCRASQGIRSYLAWYQQKPGKAPKLLIYAASTLQSGVPSRFSGSGSGTDFTLTISSLQPEDFATYYCQQVDDYPYLFAQGTKLEIK
# B6: C6-2-C01 (protein)
# chain 1: VQLVESGGGLVKPGASLRLSCVGSGFIFSNAWMNWVRQAPGKGLEWVGRMKIYTDGGTTDYAAPVKGRFTISRDDSKNTLYLQMSSLKTEDTAMYYCVTDFSGRRPYWGQGTLVTVSS
# chain 2: DIQMTQSPSTLSASVGDRVTITCRASQRISNWLAWYQQKPGKAPKLLIYEASTLESGVPSRFSGSGSGTEFTLTINSLQPDDFATYYCQLYNDYSGFTFGPGTKVDIK
# B7: antibody 4B04 (protein)
# chain 1: VQLVESGGGVVQPGRSLRLSCAVSGFTFISYDMHWVRQAPGKGPEWMAYISYDGNRQYYADSVKGRFTISRDNSKNTLHLQMNSLKPEDTAVYSCAREFVPPGPDDYYFGLDVWGQGTTVTVSS
# chain 2: EIVLTQSPATLSLSPGDRATLSCRASQSVGSYLAWYQQKPGQAPRLLIYDASKRATDIPARFSGSGSGTDFTLTISSLEPADFAIYYCQLRSDWPPGFTFGRGTKVEIK
# B8: R95-2G10 (protein)
# chain 1: EVQLVESGGGVVHPGGSLRLSCAASGFTFSSYAMHWVRQAPGKGLEGVAFIKYDGTNKYYADSLKGRFTISRDNSKNTLYLQMNSLRADDTAVYYCAKAHNAAVAGLAEYFEHWGQGTLVTVSS
# chain 2: SYELTQPPSVSVAPGQTARITCGGNNIGSKNVHWYQQKPGQAPVLVVHDDSDRPSGIPERFSGSNSGNTATLTISRVEAGDEADYYCQVWDRHSDHFWVFGGGTKLTVL
# B9: C6-2-D02 (protein)
# chain 1: VQLVESGGGLVQPGGSLRLSCAASGFTFNTHLMYWVRQAPGKGLEWVSLISPAGRNKFYADSVRARFTISRVNSRNTLYLQIDTVRPEDTAVYYCATRSVGATGYLSWGPKDYSYNDVDVWGQGTTVTVSS
# chain 2: DIQMTQSPSSLSASVGDTVTIACRASQGIRSDLGWYQQQAGKAPRRLIYGASSLQSGVPSRFSGSGSGTEFTLTISSLQPEDFATYYCLQHNSYPWTFGQGTKVEIK
# B10: K77-2A03 (protein)
# chain 1: LVQLQESGPGLVKPSETLSLTCTVSGGSISSSTYYWGWIRQPPGKGLEWIGSIYYTGDTYYNPSLKSRVTISVDSSKNQFSLKLSSLTAADTAVYYCARERAWLRGPFDFWGRGTLVTVSS
# chain 2: DIVMTQSPDSLAVSLGERATINCKSSQSILFSSYNKNHLAWYQQKPGQPPKLLIYWASTRESGVPDRFSGSGSGTDFTLTISSLQAEDVAVYFCQQYYSPPSFTFGQGTKLEIK
# B11: R95-2H10 (protein)
# chain 1: EVQLVASGGALGQPDRSLRLSCAASGFIFEEYALHWVRQAPGKGLEWVSNVSWNSGYRAYADSVKGRFTISRDNAEKSLSLQMNSVRREDTAFYYCAKDRAGHLGSGSYFDSWGQGTLVTVSS
# chain 2: SYELTQPPSVSVAPGQTARIPCGGNNIGSKSVHWYQQKPGQAPVLVVYDDSDRPSGIPERFSGSNSGNTATLTISRVEAGDEADYYCQVWDGYSDPLFVFGTGTKV
# B12: antibody 6F06 (protein)
# chain 1: VQLVESGGGLVQPGRSLRLSCAASGFTFDDYAMHWVRQAPGKGLEWVSTISWGSAGVGYADSVKGRFTISRDNANSALYLQMSSLRPEDTALYYCAKDRGYSTSQDYYYYFGMDVWGQGTTVTVSS
# chain 2: DIQMTQSPSSLSASVGDRVTITCQASQDINKYLIWYQQRPEKAPKLLIYDASNLETGVPSRFSGSGSGTDFTFTISNLQPEDIATYYCQQYESFPLTFGGGTKVEIK
# B13: C1-2-B02 (protein)
# chain 1: VQLVQSGAELKKPGASVKVSCKASGYTFTDYYLHWVRQAPGQGLEWMGWIKPNFGGTIYAQKFQGRVTVTSDTSINTAYMELSRLTSDDTAVYYCARAVYYDLTSDFCVDCYDAFDVWGQGTMVTVSS
# chain 2: DIQLTQSPSFLSAFVGDRVTITCRASQGISTYLAWYQQKPGKAPKLLIYAASILQSGVPSRFRGSGSGTEFTLTISSLQPEDFATYYCQQLNSYVVTFGQGTKVEIK
# B14: antibody 4G04 (protein)
# chain 1: VQLVESGGAVVQPGRSLRLSCTASGFIFSRFAIHWVRQAPGKALEWVAVISDDASKEDYADSVKGRFIISRDNSKSTLYLQMNSLTTEDTAVYYCARDPTHSGDIISWFFDSWGQGILVTVSS
# chain 2: SYELTQPPSVSVSPGQTANITCSGDKLGDKYTSWYQQKSGQSPVLVIYHDTRRPSGIPERFSGSSSGNTATLTISGTQVMDEADYYCQAWVWDSYVVFGGGTKLTVL
# B15: 009-10-1G06 (protein)
# chain 1: EVQLVETGGGLIQPGGSLRLSCTASKFTVSINYMSWVRQTPGKGLEWVSIIYDDGSTFYADSVRGRFTISRDNSKNTIYLQMNSLRADDTAVYYCARDPGMRGYFDHWGQGTLVTVSS
# chain 2: QSVLTQPPSVSGAPGQRVAISCTGSSSNIGAGYDVHWYQQLPGTAPKLLIYDNNSRPSGVPDRFSGSKSGTSASLAITGLQAEDEADYYCQSYDSGVSGYVFGTGTKVTVL
# B16: C7-3-C02 (protein)
# chain 1: QVQLQESGPGLVKPSETLSLTCNVSGDSVSSGNYYWSWIRQPPGKALEWIGYIYNRGRTKYNSALKSRVTISEDTANNQFSLRLTSVTAADTAIYYCARDNVVSLGRFGEFALYIDYWGRGTLVTVS
# chain 2: DIQMTQSPSSLSASVGDRVTITCRASQSINTYLNWYQQKPGAAPKLLIYGASTLQSGVPSRFSGGGSGTDFTLTISSLQPDDFATYHCQQSYGIPLTFGQGTRLEIK
# B17: antibody 3F01 (protein)
# chain 1: EVQLVESGGGLVLPGRSLTLSCVASGFTYDDYAMHWVRQVPGKGLEWVAGISWDSVSIGYEDSLRGRFTISRDNAKNSLYLQINSLRDEDTAFYYCAKQGEMRGYDYRLHWFFDLWGRGTLVTVSS
# chain 2: EIVLTQSPGTLSLSPGERATLSCRASQSVSSHLVWYQMKPGQAPRLLIYGASSRATGIPDRFSGSGSGTDFTLNIRRLEPEDFAVYFCQQFEDLPITFGRGTRLEIK
# B18: K77-1G08 (protein)
# chain 1: LVQPQESGPGLVKPSETLSLTCTVSNGSISSGNFYWGWIRQPPGKGLEWLGAIYYTGITYYSPSLKRRLTISVDTSMNQFSLRLNSVTAADTAVYYCARDLAPYYYGSGTFYNIFDHWGQGTLITVSS
# chain 2: QSALTQPPSVSAAPGQRVTISCSGSRSNIGNYYVSWYQQFPGTAPKLLIYDNDKRPSGIPDRFSGSKSGTSATLGITGLQTGDEADYYCGTWDSSLSAHVIFGGGTKLTVL
# B19: antibody 2G02 (protein)
# chain 1: EVQLVESGGGLVQPGRSLRLSCAASGFTFDDYTMHWVRQAPGRGLEWVSSINWVSSTVGYADSVKGRFTISRDNAKNSLYLQMNSLRPEDTALYYCARDRRTDATMDYYFYSAMDVWGRGTTVTVSS
# chain 2: DIQMTQSPSSLSASVGDRVTITCQASQDISKYLNWYQQKPGKAPKLLIYDASTLETGVPSRFSGSASGTDFTFTISNLQPEDIATYYCQQYDNLPITFGQGTRLEIK
# What was measured:
# [1] = biological target: H1 HA stem construct (mini-HA #4900); assay: mRNA display binding score; higher = more enriched on the antigen; conditions: antigen blocked with: nothing
# Description: (§1)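 A pool of natively paired antibodies, displayed as scFv on mRNA, was selected once on antigen-coated beads and sequenced before and after; two replicates.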
# [2] = biological target: H3 HA stem construct (H3ssF); assay: as above; conditions: antigen blocked with: nothing
# Description: as §1
Binder,mRNA display binding score [1],mRNA display binding score [2]
B1,inactive: -0.779,inactive: -0.539
B2,inactive: 0.199,inactive: -0.0877
B3,inactive: 0.0979,inactive: -0.24
B4,inactive: 0.149,inactive: -0.485
B5,inactive: 0.841,inactive: -0.098
B6,inactive: 0.461,inactive: 8.87
B7,inactive: 0.276,inactive: -0.251
B8,inactive: -1,inactive: -0.0869
B9,inactive: -0.091,inactive: -0.277
B10,inactive: 0.133,inactive: -0.181
B11,inactive: 0.0967,inactive: 0.0271
B12,inactive: 0.439,inactive: 0.729
B13,inactive: 0.0179,inactive: -0.182
B14,inactive: 0.802,inactive: -0.0214
B15,inactive: -0.809,active: 98
B16,inactive: 1.62,inactive: 5.95
B17,inactive: 1.16,inactive: 0.634
B18,inactive: -0.426,inactive: -0.21
B19,inactive: -0.494,inactive: 1.9
